# Measurements as given in the supplement of paper PMC11876631.
# Substitutions are numbered along the chain they refer to. In names and notes the source's numbering stands. ± gives the standard deviation of the averaged measurements. Laboratory Escherichia coli strains with one amino-acid change in an essential protein, pooled on minimal glucose agar with carbenicillin or gentamicin at twice the control MIC (plus kanamycin and chloramphenicol for the plasmids), 48 h. Fold change of barcode share against drug-free plates; higher = less susceptible. Active = above 20 in both replicates (the paper's putatively resistant). '<' = one read or none on drug, '>' = one read or none on a drug-free plate. Shares are relative, so most strains fall below 1 when a few take over. Listed are strains with at least 15 reads on both drug-free plates, and hits; most hits rest on fewer reference reads. Replicate rank correlation about 0.5. Edits are read from barcodes.
# B1: dnaA I26A (protein)
# chain: MSLSLWQQCLARLQDELPATEFSMWARPLQAELSDNTLALYAPNRFVLDWVRDKYLNNINGLLTSFCGADAPQLRFEVGTKPVTQTPQAAVTSNVAAPAQVAQTQPQRAAPSTRSGWDNVPAPAEPTYRSNVNVKHTFDNFVEGKSNQLARAAARQVADNPGGAYNPLFLYGGTGLGKTHLLHAVGNGIMARKPNAKVVYMHSERFVQDMVKALQNNAIEEFKRYYRSVDALLIDDIQFFANKERSQEEFFHTFNALLEGNQQIILTSDRYPKEINGVEDRLKSRFGWGLTVAIEPPELETRVAILMKKADENDIRLPGEVAFFIAKRLRSNVRELEGALNRVIANANFTGRAITIDFVREALRDLLALQEKLVTIDNIQKTVAEYYKIKVADLLSKRRSRSVARPRQMAMALAKELTNHSLPEIGDAFGGRDHTTVLHACRKIEQLREESHDIKEDFSNLIRTLSS
# B2: dnaA L48Q (protein)
# chain: B1 chain with A26I, L48Q
# B3: dnaA L48W (protein)
# chain: B1 chain with A26I, L48W
# B4: dnaA L48A (protein)
# chain: B1 chain with A26I, L48A
# B5: dnaA I26W (protein)
# chain: B1 chain with A26W
# B6: dnaA I26D (protein)
# chain: B1 chain with A26D
# B7: dnaA I26P (protein)
# chain: B1 chain with A26P
# B8: dnaA I26Q (protein)
# chain: B1 chain with A26Q
# B9: dfp L347Q (protein)
# chain: MSLAGKKIVLGVSGGIAAYKTPELVRRLRDRGADVRVAMTEAAKAFITPLSLQAVSGYPVSDSLLDPAAEAAMGHIELGKWADLVILAPATADLIARVAAGMANDLVSTICLATPAPVAVLPAMNQQMYRAAATQHNLEVLASRGLLIWGPDSGSQACGDIGPGRMLDPLTIVDMAVAHFSPVNDLKHLNIMITAGPTREPLDPVRYISNHSSGKMGFAIAAAAARRGANVTLVSGPVSLPTPPFVKRVDVMTALEMEAAVNASVQQQNIFIGCAAVADYRAATVAPEKIKKQATQGDELTIKMVKNPDIVAGVAALKDHRPYVVGFAAETNNVEEYARQKRIRKNQDLICANDVSQPTQGFNSDNNALHLFWQDGDKVLPLERKELLGQLLLDEIVTRYDEKNRR
# B10: dfp L347P (protein)
# chain: B9 chain with Q347P
# B11: adk I4W (protein)
# chain: MRIWLLGAPGAGKGTQAQFIMEKYGIPQISTGDMLRAAVKSGSELGKQAKDIMDAGKLVTDELVIALVKERIAQEDCRNGFLLDGFPRTIPQADAMKEAGINVDYVLEFDVPDELIVDRIVGRRVHAPSGRVYHVKFNPPKVEGKDDVTGEELTTRKDDQEETVRKRLVEYHQMTAPLIGYYSKEAEAGNTKYAKVDGTKPVAEVRADLEKILG
# B12: adk I4Q (protein)
# chain: B11 chain with W4Q
# Molecular target: Escherichia coli (laboratory strain)
# Experiment: barcode share on antibiotic plates over drug-free plates; higher = less susceptible
# Settings: antibiotic: carbenicillin; 2× MIC (3.1 µg/mL)
# Description: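 A pool of E. coli strains, each edited to carry one amino-acid change in an essential protein, was grown for 48 h on minimal glucose agar with or without antibiotic; strain barcodes were sequenced; mean of two replicates.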
row,Protein,fold change of barcode share
1,B1,0.319 ± 0.13
2,B2,0.541 ± 0.034
3,B3,0.349 ± 0.014
4,B4,0.232 ± 0.019
5,B5,0.232 ± 0.068
6,B6,0.274 ± 0.12
7,B7,0.604 ± 0.25
8,B8,0.219 ± 0.11
9,B9,0.307 ± 0.24
10,B10,0.536 ± 0.19
11,B11,0.663 ± 0.13
12,B12,0.502 ± 0.03

# Same assay, conditions: antibiotic: gentamicin; 2× MIC (MIC 0.45 µg/mL)
row,Protein,fold change of barcode share
1,B1,< 0.0108
2,B2,0.00747 ± 0.0056
3,B3,0.0083 ± 0.00044
4,B4,0.00502 ± 0.0033
5,B5,0.0187 ± 0.011
6,B6,0.00985 ± 0.0047
7,B7,0.0128 ± 0.0087
8,B8,0.0398 ± 0.05
9,B9,< 0.0064
10,B10,< 0.00797
11,B12,< 0.0171
